SMILES strings stand for the structures. In all, about 48,000 compounds went through this assay and about 550 (1.1%) were called active. Another 4% or so got no clear call; they are omitted. No stated cut-off is given here; in the data, active means potency below about 15 µM; inconclusive means mostly about 16 µM to 33 µM; inactive means weaker than that. The list shows a part of the results. Bounds are passed on as bounds.
Potency means the concentration at half of the fitted maximal effect.

Sequence of UniProt P04062 (P04062 whole entry, looked up): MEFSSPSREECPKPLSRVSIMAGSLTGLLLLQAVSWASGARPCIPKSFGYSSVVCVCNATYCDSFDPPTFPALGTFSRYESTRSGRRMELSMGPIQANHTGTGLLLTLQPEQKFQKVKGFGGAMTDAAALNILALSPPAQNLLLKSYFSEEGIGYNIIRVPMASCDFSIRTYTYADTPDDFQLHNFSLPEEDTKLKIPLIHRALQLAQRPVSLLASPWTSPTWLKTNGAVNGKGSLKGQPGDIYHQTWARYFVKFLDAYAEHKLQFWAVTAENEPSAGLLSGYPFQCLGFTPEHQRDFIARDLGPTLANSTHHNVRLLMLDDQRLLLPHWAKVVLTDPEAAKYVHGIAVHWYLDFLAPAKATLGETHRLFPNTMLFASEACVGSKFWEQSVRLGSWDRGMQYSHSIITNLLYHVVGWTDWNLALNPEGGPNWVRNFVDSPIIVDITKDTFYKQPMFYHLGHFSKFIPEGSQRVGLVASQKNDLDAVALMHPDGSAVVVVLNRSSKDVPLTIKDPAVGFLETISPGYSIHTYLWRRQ

In the assay the target is Lysosomal acid glucosylceramidase (Homo sapiens) (UniProt P04062). The assay can be described thus: Glucocerebrosidase.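 Further: the screen sought inhibitors.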 Particulars: purified enzyme, resorufin glucoside fluorescence (screen aimed at inhibitors), 20 min. Put shortly:
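Wild-type enzyme at 0.2 nM final in 50mM citric acid/KH2PO4, 10mM sodium taurocholate, 0.01% tween-20, pH 5.9, with resorufin beta-D-glucopyranoside at 30 uM final. Compounds titrated, 20 min at RT, red fluorescence read; AC50 from titration.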
As to `COc1ccc(S(=O)(=O)NCCC(=O)NC(C)c2ccccc2)cc1` (stereo unspecified), the Potency was inactive: > 76.9 µM.
Turning to `O=C(NCc1cccnc1)c1cc(S(=O)(=O)N2CCCCC2)ccc1Cl`, the Potency was inactive: > 76.9 µM.
On to `O=C(NCc1ccco1)C(c1cccnc1)N(C(=O)Cn1nnc2ccccc21)c1ccc(F)cc1` (stereo unspecified), for which the Potency is inactive: > 76.9 µM.
Take `CC1CCCCC1NC(=O)CN1CCC(O)(c2ccc(F)cc2)CC1` (stereo unspecified): the Potency was inactive: > 76.9 µM.
Consider `Cn1c(=O)c2c(nc(SCC(=O)OCc3ccccc3)n2C)n(C)c1=O`, for which the Potency is inactive: > 76.9 µM.
Regarding `O=C1CN(C(=O)c2ccco2)C(c2ccc(F)cc2)c2cc(Cl)ccc2N1` (stereo unspecified), the Potency was inactive: > 76.9 µM.
Take `CCCCNC(=O)c1cccc(C(=O)NCCCC)c1`: the Potency was inactive: > 76.9 µM.
Regarding `Cn1c(=O)c2c(nc(N3CCCCC3)n2CCSc2nc3ccccc3o2)n(C)c1=O`, the Potency was inactive: > 76.9 µM.
As to `COc1cccc(NC(=O)c2cccc(OC)c2OC)c1`, the Potency is inactive: > 76.9 µM.
Next, `Cc1noc(C)c1COC(=O)COc1cccc2c1OC(C)(C)C2`: inactive: > 76.9 µM.
Consider `CC(=O)c1c(C)[nH]c(C(=O)NCCc2ccccc2)c1C`, for which the Potency is inactive: > 76.9 µM.
Next, `Cc1cc2n(n1)SC(Nc1ccccc1)N2` (stereo unspecified): inactive: > 76.9 µM; `O=C(COC(=O)CCS(=O)(=O)c1ccc(Cl)cc1)Nc1ncc(Cl)cc1Cl`: inactive: > 76.9 µM.
For `COC(=O)N(C)CCCC1(C)C(=O)N(C)c2ccc(O)cc21` (stereo unspecified), the Potency is inactive: > 76.9 µM.
With `CC(=O)c1cc2c(cc1NC(=O)c1cnc(C)cn1)OCO2`, the Potency was inactive: > 76.9 µM.
The figure for `COc1ccc(C2N=C(N)N=C(N)N2c2ccccc2)cc1OC` (stereo unspecified) is inactive: > 76.9 µM; for `COc1ccc(NC(=O)C(c2ccccc2)N(C)C(=O)c2cnccn2)cc1` (stereo unspecified) it is inactive: > 76.9 µM.
As to `COCC(=O)Nc1sc2c(c1C(=O)OC)CCC(C)C2` (stereo unspecified), the Potency is inactive: > 76.9 µM.
For `COc1ccc(Cl)c(Cn2c(NCc3ccccn3)nc3c2c(=O)n(C)c(=O)n3C)c1`, the Potency is inactive: > 76.9 µM.
The figure for `COc1ccc(-n2c(C)cc(C(=O)COC(=O)Cn3cnc4ccccc43)c2C)cc1` is inactive: > 76.9 µM.
`COc1ccc(S(=O)(=O)NC(CC(=O)NC2CCCC2)c2ccco2)cc1` (stereo unspecified): the Potency is inactive: > 76.9 µM.
Consider `CCOC(=O)C1CCCN(S(=O)(=O)c2ccc(OC)c3ccccc23)C1` (stereo unspecified), for which the Potency is inactive: > 76.9 µM.
The figure for `COc1ccc(N(Cc2cc3ccc(C)cc3[nH]c2=O)C(=O)c2ccco2)cc1` is inactive: > 76.9 µM; for `COc1ccc(Cn2c(CCC(=O)Nc3ccc(CC#N)cc3)nc3cccnc32)cc1` it is inactive: > 76.9 µM; for `COC(=O)C1CCN(C(=O)c2sc3nc(-c4ccc(F)cc4)cn3c2C)CC1` it is “inactive”.
The figure for `Cn1nc(C(=O)NCCN2CCOCC2)c2ccccc2c1=O` is inactive: > 76.9 µM; for `O=C(C1CCCN(S(=O)(=O)c2cccc3nsnc23)C1)N1CC=C(c2ccccc2)CC1` (stereo unspecified) it is inactive: > 76.9 µM; for `CCSc1nnc(-c2ccccc2N)c(=O)[nH]1` it is inactive: > 76.9 µM.
For the compound `COc1ccc(-c2cc(C(=O)N3CCN(Cc4ccccc4)CC3)no2)cc1OC`, the Potency is inactive: > 76.9 µM.
On to `CC(C)(C)NC(=O)C(c1ccco1)N(C(=O)Cn1nnc(-c2ccc(F)cc2)n1)c1ccccc1` (stereo unspecified), for which the Potency is inactive: > 76.9 µM.
Turning to `CCN(CC)CCOC(=O)c1c(C)oc2ccc(O)cc12`, the Potency was inactive: > 76.9 µM.
Next, `CCN(CC)CCN1C(=O)C(=O)/C(=C(/O)c2cccc(OC)c2)C1c1ccccn1` (stereo unspecified): inactive: > 76.9 µM; `COc1ccc(CNC(=O)Nc2cccs2)cc1OC`: inactive: > 76.9 µM.
Turning to `O=c1[nH]c(CN2CCN(CCO)CC2)nc2ccccc12`, the Potency was inactive: > 76.9 µM.
The figure for `O=C(NCc1ccccn1)c1cn(CCc2ccccc2)nn1` is inactive: > 76.9 µM; for `COc1ccc(CN2CCN(C(=O)CC(C)C)CC2)c2ccccc12` it is inactive: > 76.9 µM; for `COCCOC(=O)C1=C(C)NC2=C(C(=O)CC(C)(C)C2)C1c1cccnc1` (stereo unspecified) it is inactive: > 76.9 µM.
For `CCSc1nnc(NC(=O)c2nn(C(C)C)c(=O)c3ccccc23)s1`, the Potency is inactive: > 76.9 µM.
Turning to `CCC(O)c1cc2c(cc1NC(=O)c1cccs1)OCCO2` (stereo unspecified), the Potency is inactive: > 76.9 µM.
On to `CCOC(=O)c1csc(NC(=O)CSc2nnnn2-c2ccc(OCC)cc2)n1`, for which the Potency is inactive: > 76.9 µM.
On to `CN(C)CCCn1c(N)c(C#N)c2nc(C#N)c(C#N)nc21`, for which the Potency is inactive: > 76.9 µM.
The figure for `CCN(CC)S(=O)(=O)c1ccc(/C(O)=C2/C(=O)C(=O)N(CCOC)C2c2ccccc2)cc1` (stereo unspecified) is inactive: > 76.9 µM; for `CCN(CC)CCCNC(=O)C1CCN(C(=O)c2cc3sccc3n2Cc2ccc(F)cc2)CC1` it is inactive: > 76.9 µM.
Next, `C=CCn1c(SC/C=C/c2ccccc2)nnc1-c1sc(N)nc1C`: inactive: > 76.9 µM.
Regarding `Cc1noc(C)c1S(=O)(=O)N1CCC(C(=O)NC2CCCc3ccccc32)CC1` (stereo unspecified), the Potency is inactive: > 76.9 µM.
As to `O=C(N1CCOCC1)N1CCC(n2nnc3ccccc32)CC1`, the Potency was inactive: > 76.9 µM.
Take `Cc1ccc(Cn2c(NCCCn3ccnc3)nc3c2c(=O)n(C)c(=O)n3C)cc1`: the Potency was inactive: > 76.9 µM.
Take `CCOc1ccc(C2CC(=O)NC3=C2C(=O)CCC3)cc1` (stereo unspecified): the Potency was inactive: > 76.9 µM.
For `Cc1oc(-c2ccc(Cl)cc2)[n+]([O-])c1C`, the Potency is inactive: > 76.9 µM.
On to `O=C(C1CCC1)N1CCc2cc(S(=O)(=O)N3CCN(c4ccccn4)CC3)ccc21`, for which the Potency was inactive: > 76.9 µM.
With `CC(=O)N=c1ncn(CC(COC(C)=O)OC(C)=O)c2nc[nH]c12` (stereo unspecified), the Potency was inactive: > 76.9 µM.
Turning to `CCN1C(=O)C(NC(C)=O)c2cc(OC)ccc21` (stereo unspecified), the Potency was inactive: > 76.9 µM.
Turning to `CCCc1cc(=O)[nH]c(SCC(=O)N(C)Cc2ccccc2)n1`, the Potency is inactive: > 76.9 µM.
Consider `Cc1ccc(S(=O)(=O)N2CCC(C(=O)N3CCC[C@H]3C(=O)NC3CCS(=O)(=O)C3)CC2)cc1` (stereo partly specified), for which the Potency was inactive: > 76.9 µM.
Next, `O=C(Cc1c[nH]c2ccccc12)NCc1ccc2c(c1)OCO2`: inactive: > 76.9 µM; `COc1cc(S(=O)(=O)N2CCN3CCCC3C2)ccc1-n1cnnn1` (stereo unspecified): inactive: > 76.9 µM.

Source of the values: PubChem BioAssay AID360 (National Center for Advancing Translational Sciences (NCATS), 2006).
